# Article PMC12040169 (PLOS Biology, 2025)
# Some of the results follow.
# Tested on: T1, C. trachomatis L2/434/Bu expressing GFP (CTL2-GFP)
# T1 construct: L2/434/Bu GFP intracellular growth in HeLa cells
# Parameters: species or system HeLa; C. trachomatis total inclusion area by high-content imaging, normalised to DMSO
# Conditions: total inclusion area; 28.5 h, 10 µM; inhibitor
# From the text: In this process, we also complemented the assay described above with an imaging-based readout (Fig 1B). After measurements of bulk GFP and resorufin fluorescence, cells were fixed, stained with the DNA dye Hoechst, and imaged at a high-content imaging platform to detect chlamydial inclusions (GFP) and host cell nuclei (Hoechst). The total area and number of inclusions in individual wells and the number of nuclei then served as additional proxies for chlamydial growth and host cell viability. […] MICs were calculated as described above.
row,SMILES,% of control remaining
1,O=C(COc1ccccc1)n1nc(-c2ccco2)nc1NCc1cccs1 [CBK269145],101.67
2,CCOc1cccc(CNn2cnnc2)c1OCc1ccccc1 [CBK265824],72.5792
3,CC(=O)NCCNC(=O)c1cnc(-c2ccc(Cl)cc2)c(-c2ccc(O)cc2)c1 [CBK036647],116.778
4,Cc1cccc(C(=O)N[C@@H](C)Cn2nc3c(cc2=O)CCCC3)c1 [CBK284563],118.704
5,O=C(Nc1cc(-c2nc3ncccc3o2)ccc1Cl)c1ccc2c(c1)OCCO2 [CBK264105],95.7683
6,CC(C)(C)c1cc(CNCCS(=O)(=O)O)c(O)c(C(C)(C)C)c1 [CBK261098],91.1902
7,Cc1nn(C)c(C)c1CN(C)S(=O)(=O)Cc1ccc(F)cc1 [CBK281590],71.2205
8,CN(C)CCN(C)C(=O)Cc1csc(-c2cccc(Cl)c2)n1 [CBK282176],70.7906
9,O=C(O)c1ccc(-c2cnc3ccccc3n2)cc1 [CBK288010],79.9617
10,Cc1ncsc1CCN(C)C(C)C(=O)Nc1nccs1 (stereo not drawn) [CBK307709],62.5363
11,Cc1ccc(CC(=O)N2CC(=O)Nc3ccccc32)cc1 [CBK287670],62.9095
12,COc1ccc(NC(=O)c2ccc(-c3nnn[nH]3)cc2)cc1Cl [CBK295139],100.835
13,CCOc1cc(OCC)cc(C(=O)N2CCC3(CC2)CC(=O)c2cc(OCC)ccc2O3)c1 [CBK168013],111.934
14,O=C(C1CCCN(CC(O)c2cccs2)C1)N1CCCCCC1 (stereo not drawn) [CBK282117],89.5379
15,COc1nccc(N2CCC3(CCC(=O)N(CCO)C3)CC2)c1C#N [CBK307255],67.2516
16,O=C(CSc1nnc(SCc2cccc3ccccc23)s1)Nc1ccccc1C(F)(F)F [CBK267575],108.835
17,COc1ccc(CNC(=O)N(C)C2CCN(C)C2)cc1OC (stereo not drawn) [CBK156020],118.443
18,Cc1cc(N)n(-c2nc3c(cnn3-c3ccc(C)c(C)c3)c(=O)[nH]2)n1 [CBK287646],86.5468
19,Cc1oc(-c2cccc(Cl)c2)cc1C(=O)O [CBK045856],84.7626
20,O=C(c1csc(-c2ccncc2)n1)N1CCN(c2ccccc2)CC1 [CBK288590],111.423
21,CCOC(=O)CSc1nc2ccccc2nc1C(F)(F)F [CBK107200],54.6735
22,COCOc1ccc(-c2nc(-c3cccnc3)cnc2N)cc1 [CBK063999],121.448
23,Oc1nc(CSc2nnc(-c3ccncc3)n2-c2ccccc2)nc2ccccc12 [CBK264851],99.5667
24,CN1CCN(NC(=O)C2C3C=CC(C3)C2C(=O)O)CC1 (stereo not drawn) [CBK286915],106.309
25,Cc1cc(NS(=O)(=O)c2ccc(N3CCOCC3)nc2)n(C)n1 [CBK067253],101.353
26,c1ncc(N2CCCC2)nc1OC1CCOC1 (stereo not drawn) [CBK115893],90.9275

row,SMILES,% of control remaining
1,CCC(NC(=O)C(C)Cn1cccn1)c1ccc(F)cc1 (stereo not drawn) [CBK283210],95.5374
2,O=C(O)c1cc(S(=O)(=O)NCc2ccc(Cl)cc2Cl)ccc1O [CBK296924],69.9422
3,O=C(c1ccc(-c2nccnc2NCc2ccc(C(F)(F)F)cc2)cc1)N1CCOCC1 [CBK036931],119.977
4,CN1CCN(C(=O)c2cc(C(C)(C)C)nn2Cc2ccc(Cl)cc2Cl)CC1 [CBK107285],94.8264
5,CC1(C)CN=C(N2CCN(c3c4c(c(C#N)c5nc6ccccc6n35)CCC4)CC2)S1 [CBK263113],95.3721
6,O=c1[nH]cc([C@H]2C[C@@H](O)[C@@H](CO)O2)c(=O)[nH]1 [CBK201158],112.692
7,O=C1NN(c2ccc(Br)cc2)C(=O)/C1=C\c1ccc(-c2ccc3c(c2)C(=O)NC3=O)o1 [CBK262968],98.8516
8,Cc1cc(NC(=O)CN2CCC(CNc3ccccn3)C2)on1 (stereo not drawn) [CBK305760],68.876
9,OC(CN1CCC(O)(c2ccc(C(F)(F)F)cc2)CC1)c1ccccc1 (stereo not drawn) [CBK286323],97.5612
10,O=C(O)CC(Cc1ccccc1)c1ccc(Cl)cc1 (stereo not drawn) [CBK270231],97.7327
11,COCCn1c(SCc2cn3ccccc3c2C#N)nc(C)c1C [CBK306282],42.9337
12,Cc1ccc2c(c1)C(=O)NCC1(CCN(C(=O)c3ccco3)CC1)O2 [CBK282894],102.863
13,Clc1ccc(SCCN2CCOCC2)cc1 [CBK265055G],97.1202
14,CC(C)n1c(=O)n(CC(=O)N2CCCCCC2)c2cccnc21 [CBK283527],106.009
15,COc1cc(NC(=O)N2CCNC(=O)C2)cc(OC)c1OC [CBK155875],76.4319
16,CCc1ccc2c(c1)C(CCNC(=O)CCc1ccsc1)C(=O)N2 (stereo not drawn) [CBK305063],81.3353
17,Cc1ccc2[nH]c3c(c2c1)CCNC31CCN(C(=O)Nc2c(C)noc2C)CC1 [CBK047071],102.816
18,O=C(c1cccc(Cn2cccn2)c1)N1CCc2sccc2C1c1ccccc1 (stereo not drawn) [CBK285552],84.5904
19,COc1ccc([N+](=O)[O-])cc1NC(=O)C1C2CCC(C2=C(C)C)C1C(=O)O (stereo not drawn) [CBK263686],92.7743
20,COc1cccc(/C=N/NC(=O)CSc2nnc(C)n2-c2ccccc2)c1O [CBK262758],111.694
21,O=C(O)CCC(=O)N1CCN(c2ccc(C(=O)c3ccc(F)cc3)cc2)CC1 [CBK269119],96.0988
22,CC(C)Nc1nc2cc(Cl)c(Cl)cc2nc1Sc1cccc(O)c1 [CBK093732],40.1203
23,Cc1ccc(S(=O)(=O)Nc2ccc(Nc3cc(-c4cccc5oc6ccccc6c45)ncn3)cc2)cc1 [CBK090977],143.264
24,FC(F)(F)c1ccc(CNc2nccnc2-c2cccs2)cc1 [CBK036834],112.725
25,COc1ccc(C(=O)OC(C)(C)C)c(-c2cncc(NC3CCC(N)CC3)n2)c1 (stereo not drawn) [CBK037922],85.7603
